Starred links: 1 amine or outer side, 2 acyl side, 3 side chain; linkers in the order of their positions; H or OH if unused. Non-standard residues stand in square brackets, D forms with d. Residues, ends and D or L forms follow the SMILES beside them. *: point of attachment. X6 = COc1ccc(S(=O)(=O)N[C@@H]2C[C@@H](C(=O)[*:2])N([*:1])C2)cc1; Pro(trans-4-NH2) = O=C([C@@H]1C[C@@H](N[*:3])CN1[*:1])[*:2]; X22 = O=C(NC[C@@H]1C[C@@H](C(=O)[*:2])N([*:1])C1)Nc1ccccc1; X2 = COc1ccc(C[C@@H]2C[C@@H](C(=O)[*:2])N([*:1])C2)cc1; Benzoyl(4-OPh) = O=C(c1ccc(Oc2ccccc2)cc1)*; Oic = O=C(O)[C@@H]1C[C@@H]2CCCC[C@@H]2N1; Dip = N[C@H](C(=O)O)C(c1ccccc1)c1ccccc1; X23 = CSC[C@H](N[*:1])C(=O)C(=O)[*:2]; X1 = CCC[C@H](N[*:1])C(=O)C(=O)[*:2]; X3 = CCCC(N[*:1])C(=O)C(=O)[*:2]; Chg = N[C@H](C(=O)O)C1CCCCC1; Pip = O=C(O)[C@@H]1CCCCN1; Bn = c1ccc(C*)cc1; OtBu = CC(C)(C)O*; NHAllyl = C=CCN*; NHPr = CCCN*; OPr = CCCO*
Each compound was assayed against Recombinant heterodimeric HCV NS3/NS4A protease (strain 1a) (Hepatitis C virus genotype 1a, UniProt P27958) (assay: biochemical). Conditions: Ki* Range.
`CCCOC(=O)CNC(=O)C(=O)C(CCC)NC(=O)[C@@H]1CCCCN1C(=O)[C@@H](NC(=O)[C@@H](NC(=O)[C@H](CCC(=O)O)NC(=O)[C@H](CCC(=O)O)NC(C)=O)C(C)C)C1CCCCC1` (stereo partly drawn) [Compound 78] (Ac-EEV[Chg][Pip][X3]G-OPr) gave a Ki of 101 to 999 nM.
`C=CCOC(=O)CNC(=O)C(=O)C(CCC)N1CC[C@H](NC(=O)[C@@H](NC(=O)[C@@H](NC(=O)[C@H](CCC(=O)O)NC(=O)[C@H](CCC(=O)O)NC(C)=O)C(C)C)C(C)C)C1=O` (stereo partly drawn) [Compound 47] gave a Ki of 1000 to 10000 nM.
`COC(=O)CNC(=O)C(=O)[C@H](CSC)NC(=O)[C@@H]1CCCN1C(=O)[C@@H](NC(=O)[C@@H](NC(=O)[C@H](CCC(=O)O)NC(=O)[C@H](CCC(=O)O)NC(C)=O)C(C)C)C(C)C` [Ac-EEVVP-C(Me)-(CO)-G-OMe] (Ac-EEVVP[X23]G-OMe) showed a Ki of 1000 to 10000 nM.
Compound `CCC[C@H](NC(=O)[C@@H]1C[C@@H](NC(=O)c2ccc(Oc3ccccc3)cc2)CN1C(=O)[C@@H](NC(=O)[C@@H](NC(=O)[C@H](CCC(=O)O)NC(=O)[C@H](CCC(=O)O)NC(C)=O)C(C)C)C(C)C)C(=O)C(=O)NCC(=O)O` [Ac-EEVV-P(4t-NHBzl(4-OPh))-nV-(CO)-G-OH] (Ac-EEVV[Pro(trans-4-NH2)](Benzoyl(4-OPh))[X1]G-OH) has a Ki of 1 to 100 nM.
With `CCCC(NC(=O)[C@@H]1C[C@@H]2CCCC[C@@H]2N1C(=O)[C@@H](NC(=O)[C@@H](NC(=O)[C@H](CCC(=O)OC(C)(C)C)NC(=O)[C@H](CCC(=O)OC(C)(C)C)NC(C)=O)C(C)C)C1CCCCC1)C(=O)C(=O)NCC(=O)O` (stereo partly drawn) [Compound 59] (Ac-E(OtBu)E(OtBu)V[Chg][Oic][X3]G-OH) the Ki was 101 to 999 nM.
`CCCNC(=O)CNC(=O)C(=O)[C@H](CCC)NC(=O)[C@@H]1CCCN1C(=O)[C@@H](NC(=O)[C@@H](NC(=O)[C@H](CCC(=O)O)NC(=O)[C@H](CCC(=O)O)NC(C)=O)C(C)C)C(C)C` [Ac-EEVVP-nV-(CO)-G-Propylamide] (Ac-EEVVP[X1]G-NHPr) gave a Ki of 1000 to 10000 nM.
`CCC[C@H](NC(=O)[C@@H]1C[C@@H](CNC(=O)Nc2ccccc2)CN1C(=O)[C@@H](NC(=O)[C@@H](NC(=O)[C@H](CCC(=O)O)NC(=O)[C@H](CCC(=O)O)NC(C)=O)C(C)C)C(C)C)C(=O)C(=O)NCC(=O)O` [Ac-EEVV-P(4t-MeUreaPh)-nV-(CO)-G-OH] (Ac-EEVV[X22][X1]G-OH) showed a Ki of 1 to 100 nM.
With `CCC[C@H](NC(=O)[C@@H]1CCCN1C(=O)[C@@H](NC(=O)[C@@H](NC(=O)[C@H](CCC(=O)OC(C)(C)C)NC(=O)[C@H](CCC(=O)OC(C)(C)C)NC(C)=O)C(C)C)C(C)C)C(=O)C(=O)N[C@@H](COCc1ccccc1)C(=O)NC` [Compound 24] (Ac-E(OtBu)E(OtBu)VVP[X1]S(Bn)-NHMe) the Ki was 1000 to 10000 nM.
`CCC[C@H](NC(=O)[C@@H]1C[C@@H](Cc2ccc(OC)cc2)CN1C(=O)[C@@H](NC(=O)[C@@H](NC(=O)[C@H](CCC(=O)O)NC(=O)[C@H](CCC(=O)O)NC(C)=O)C(C)C)C(C)C)C(=O)C(=O)NCC(=O)O` [Ac-EEVV-P(4t-Bn(4-OMe))-nV-(CO)-G-OH] (Ac-EEVV[X2][X1]G-OH) was tested, and the Ki was 1 to 100 nM.
Compound `C=CCNC(=O)CNC(=O)C(=O)[C@H](CCC)NC(=O)[C@@H]1CCCN1C(=O)[C@@H](NC(=O)[C@@H](NC(=O)[C@H](CCC(=O)O)NC(=O)[C@H](CCC(=O)O)NC(C)=O)C(C)C)C(C)C` [Ac-EEVVP-nV-(CO)-G-allylAm] (Ac-EEVVP[X1]G-NHAllyl) has a Ki of 101 to 999 nM.
For `CCC[C@H](NC(=O)[C@@H]1CCCN1C(=O)[C@@H](NC(=O)[C@@H](NC(=O)[C@H](CCC(=O)O)NC(=O)[C@H](CCC(=O)O)NC(C)=O)C(C)C)C(c1ccccc1)c1ccccc1)C(=O)C(=O)NCC(=O)O` [Ac-EEVDifP-nV-(CO)-G-OH] (Ac-EEV[Dip]P[X1]G-OH), the Ki was 101 to 999 nM.
`CCC[C@H](NC(=O)[C@@H]1C[C@@H](NS(=O)(=O)c2ccc(OC)cc2)CN1C(=O)[C@@H](NC(=O)[C@@H](NC(=O)[C@H](CCC(=O)O)NC(=O)[C@H](CCC(=O)O)NC(C)=O)C(C)C)C(C)C)C(=O)C(=O)NCC(=O)O` [Ac-EEVV-P(4t-NHSO2Ph(4-OMe))-nV-(CO)-G-OH] (Ac-EEVV[X6][X1]G-OH) was tested, and the Ki was 1 to 100 nM.

— patent US6800434B2, “Peptides as NS3-serine protease inhibitors of hepatitis C virus” (priority 2000, dated 2004)
